Source: the supplement of paper PMC3724861
Some of the results follow.

Test system: T1, Caupolican (Caup) homeodomain DNA-binding domain
T1 sequence: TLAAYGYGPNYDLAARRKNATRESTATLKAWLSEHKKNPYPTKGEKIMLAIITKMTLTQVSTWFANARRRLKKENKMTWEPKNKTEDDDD
Assay: PBM E-score (8-mer, recovered from the published 9-mer minima) (E-score (dimensionless, -0.5 to 0.5)); Drosophila protein; higher = stronger relative binding preference, active = 0.31 or more
Method in brief: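 Caup's homeodomain DNA-binding domain (residues 214-303) was produced by in vitro transcription and translation and applied at 100 nM to custom-designed protein binding microarrays. Each value is an enrichment score giving relative binding preference for a short DNA word; higher means stronger. Published 9-mer scores were the minimum of their two constituent 8-mer scores, and the 8-mer values were recovered from those minima. A cutoff of 0.31 marks candidate binding sequences.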

Sequence	PBM E-score
CTAGCATA	inactive: 0.0224
ATGGTTCA	inactive: 0.0836
ATTGACAC	inactive: 0.237
GCTCGCCC	inactive: -0.171
AAATCTGC	inactive: 0.0276
ACTGATAC	inactive: 0.21
CGGAAGGA	inactive: -0.155
AATCACAT	inactive: 0.248
AAGTACTT	inactive: 0.0372
AGGTCGTC	inactive: -0.113
TACGTCTA	inactive: 0.0532
GGCCGGGA	inactive: -0.252
CAGATAGC	inactive: -0.0657
AGATCACT	inactive: 0.103
GGTTCTTA	inactive: 0.045
ACACAGCC	inactive: 0.0493
GCTGCGAA	inactive: -0.105
CGACACAA	inactive: 0.21
CAGTTGAG	inactive: -0.049
GACTCTCA	inactive: -0.025
GCCTCGGA	inactive: -0.217
GTGCACCA	inactive: -0.0612
ACATAAGC	inactive: 0.144
CCATGATA	inactive: 0.0656
AGAGACCT	inactive: -0.165

Sequence	PBM E-score
ATACTCAG	inactive: 0.0297
GGATATAA	inactive: 0.0885
CCTACCCA	inactive: -0.131
CATTGGCC	inactive: -0.187
ATGGTCGC	inactive: -0.0587
GATTCGGA	inactive: 0.0364
ACGTGTCG	inactive: 0.301
GCTAGGAC	inactive: 0.00541
TCCCTCAA	inactive: -0.141
ACTTTTAG	inactive: 0.0205
TGTTAACA	active: 0.371
CATCTAGA	inactive: 0.0463
CCACGAAC	inactive: 0.0437
ACATGACG	inactive: 0.297
CCAGGACG	inactive: -0.075
GCAGGTCC	inactive: -0.109
ATTGTAAC	inactive: 0.308
CGCAGTGA	inactive: -0.066
CAGGACCC	inactive: -0.184
CACCACTA	inactive: 0.0556
GTAGATAC	inactive: 0.134
ATGTTATG	active: 0.338
ACCACAGT	≥ 0.0797
CGCAATGC	inactive: -0.0669
TCAAAGGA	inactive: -0.0014

Sequence	PBM E-score
GAGTGCAA	inactive: 0.065
AAGACGGC	inactive: -0.148
ACCGTTCT	inactive: -0.084
CTTAGTTC	inactive: -0.0758
GAATCTAC	inactive: 0.0645
GAGAGCAC	inactive: -0.144
GACAGTAC	inactive: 0.177
CGAGAACC	inactive: -0.054
CCCCTAGG	inactive: -0.286
CTAAGAGA	inactive: -0.0459
CCAGACTC	inactive: -0.0483
TATAGTCA	inactive: 0.141
GTATGGTA	inactive: 0.204
AAGCTGAG	inactive: -0.0897
GCTAGATA	inactive: 0.0474
ACTAAAAG	inactive: -0.0855
GACACGCA	≥ 0.284
AAGTTACG	inactive: 0.0835
GCAGAAAC	inactive: -0.00268
AGATCGCG	inactive: -0.076
CTTTTGCC	inactive: -0.0326
GAGACCCC	inactive: -0.188
ATTTCCTG	inactive: 0.0432
GGACAGCA	inactive: 0.0565
CGAATGAA	inactive: 0.00722

Sequence	PBM E-score
CATGATAC	inactive: 0.266
CTGGCTGC	inactive: -0.18
CGTCCCTA	inactive: -0.117
CGAGATTC	inactive: -0.01
CCAAGTAG	inactive: -0.0584
CCTGGTCG	inactive: -0.0997
ATATACTG	inactive: 0.156
ATTTTTTC	inactive: -0.0311
AGGCAAGC	inactive: -0.0636
ACTATGGA	inactive: 0.0763
AAAGTGTC	inactive: 0.0956
CCCGTCGA	inactive: -0.142
GATAAAAA	inactive: 0.046
GATCAGTA	inactive: 0.114
AATTTTGA	inactive: 0.115
CCAAGGAA	inactive: -0.0909
ACTGCTAG	inactive: -0.111
AGGGGGGG	inactive: -0.439
AGACTTTG	inactive: -0.0135
AAACACCC	inactive: 0.0513
CCCGTCGC	inactive: -0.208
ACGCCGGA	inactive: -0.134
ACGGAATA	inactive: 0.0566
GCCACTCC	inactive: -0.175
AACGTTTA	inactive: 0.001

Sequence	PBM E-score
GTACGATA	inactive: 0.204
AGAGCTTG	inactive: 0.0254
ATGAGAGG	inactive: -0.154
ATTCACAG	inactive: -0.00235
AGCCCGTA	inactive: -0.102
GTTGCACA	inactive: 0.182
AAATCCAC	inactive: 0.00025
AAACATGT	active: 0.443
CGTCATAA	inactive: 0.081
CCAACTGA	inactive: 0.00487
CTGCTTCA	inactive: -0.169
CCCCAAGG	inactive: -0.244
CAAAATTA	inactive: 0.0569
CGTACTCA	inactive: 0.00173
CAAGACAC	inactive: 0.21
CCGGCGCA	inactive: -0.184
TCAAGCGA	inactive: -0.0899
CGCGACGC	inactive: -0.147
ATTGGTCG	inactive: -0.00807
GATTACAA	active: 0.314
GGGACAGA	inactive: -0.0214
CCCCCCAG	inactive: -0.397
AGCCGGTA	inactive: -0.0702
CGCTGTGA	inactive: -0.0259
ACAATGAA	inactive: 0.197

Sequence	PBM E-score
GGCTTGAC	inactive: -0.139
CTCGTGTA	inactive: 0.27
GGAGGTAA	inactive: -0.008
GCGATCGC	inactive: 0.0258
ATGTGTAG	inactive: 0.193
ACCTCATA	inactive: 0.01
AGAGCTCA	inactive: -0.157
ATCTAGAG	inactive: -0.00866
AGGCCCCG	inactive: -0.287
ATCTATGA	≥ 0.132
CCTAGACA	inactive: -0.00965
ATACCTGA	≥ 0.157
CTCATAAA	inactive: 0.05
CGATTTGC	inactive: 0.00382
CCTCGCGC	inactive: -0.142
AGTGCAAT	inactive: 0.0896
GGTCATGA	inactive: 0.0711
CGAAACTA	inactive: 0.0861
CGGTCCTC	inactive: -0.218
CAGGTGAC	inactive: 0.0172
ACATCCCG	inactive: 0.181
AGACGCGA	inactive: -0.0344
CTTGCGTA	inactive: 0.0318
AAACACAA	inactive: 0.27
AAGTACTG	inactive: 0.109

Sequence	PBM E-score
GTGCCCGA	inactive: -0.111
ACACGCCG	inactive: 0.0819
AGCAAGAC	inactive: 0.0516
ACTTGTCA	active: ≥ 0.378
CACCGACA	inactive: 0.117
AGAGTGAG	inactive: 0.0169
AACGGGTA	inactive: 0.0722
CGGAGGAC	inactive: -0.15
AAAAGTAG	inactive: 0.0734
ATTTTAGG	inactive: 0.0422
AAACGATA	inactive: 0.112
CGTCCAAA	inactive: -0.0822
AGAATCTA	inactive: 0.0225
AACTTGTG	inactive: 0.147
ATGGGAAG	inactive: -0.07
CACACCTC	inactive: -0.0165
CTGGACAG	inactive: -0.0238
CCAATAGC	inactive: -0.0344
ATTAATTG	inactive: 0.161
ACGTTCCC	inactive: -0.168
AATGAGGA	inactive: -0.0723
ACAGCATC	inactive: 0.14
TACCCTGA	inactive: 0.0133
ATATGTTA	active: 0.338
CTGACGAC	inactive: 0.0373

Sequence	PBM E-score
ATAGCGTA	inactive: 0.00056
CTTGCAAG	inactive: -0.0875
TGGCGACA	inactive: 0.176
AATTAACA	active: 0.326
TAAAACTA	inactive: 0.171
ATCCGGGG	inactive: -0.103
AGCCTGGG	inactive: -0.123
CAACCTAG	inactive: -0.0215
AATGCTCC	inactive: -0.181
CAGTCCCA	inactive: -0.0161
ATAATGGC	inactive: -0.0829
GTCGAAAA	inactive: 0.0738
AGAAGTTC	inactive: -0.0279
CTGCTTCC	inactive: -0.154
CTATACGC	inactive: -0.0266
CGATCTAA	inactive: 0.111
GGGGGACC	inactive: -0.38
AACCCAGT	inactive: 0.0154
ACAACTCC	inactive: 0.0167
GCGACTAC	inactive: 0.0532
ACTGGCTG	inactive: -0.0429
CCATGCAA	inactive: 0.0685
AAAGCATT	inactive: 0.0591
CACTGCCA	inactive: -0.0653
AAGGTGTA	inactive: 0.155

Sequence	PBM E-score
CAATGGTC	inactive: 0.0441
CAAATCCG	inactive: 0.00194
CAGCAGGA	inactive: -0.0173
AACCGGGA	inactive: -0.0571
GAACACAC	inactive: 0.217
CACAACAG	inactive: 0.0901
CTTGGTCC	inactive: -0.0939
AGAATACG	inactive: 0.0139
AAGGGAAG	≥ 0.0642
TCAGTGCA	inactive: -0.0104
AAAGGTTC	inactive: -0.0318
GCGCCGGA	inactive: -0.268
CGGCGATC	inactive: -0.153
CCGGCAGA	inactive: -0.25
TGAAGGCA	inactive: -0.0569
CATGCATA	inactive: 0.14
TCGGTGCA	inactive: -0.0471
TAGTGGAA	inactive: -0.102
CTCACATA	inactive: 0.149
CGGCCCCA	inactive: -0.314
ATCGAGCC	inactive: -0.0462
GCTTAACA	inactive: 0.251
ATTTGGAA	inactive: 0.0173
